Data on 115 sequences can be found in the BET-seq Pho4 binding data (Le et al. 2018).

The other results are listed elsewhere or left out. These are noisy estimates, calculated here from bound and input reads.

The target of the test is T1, Pho4 (S. cerevisiae) (UniProt P07270).
T1 sequence: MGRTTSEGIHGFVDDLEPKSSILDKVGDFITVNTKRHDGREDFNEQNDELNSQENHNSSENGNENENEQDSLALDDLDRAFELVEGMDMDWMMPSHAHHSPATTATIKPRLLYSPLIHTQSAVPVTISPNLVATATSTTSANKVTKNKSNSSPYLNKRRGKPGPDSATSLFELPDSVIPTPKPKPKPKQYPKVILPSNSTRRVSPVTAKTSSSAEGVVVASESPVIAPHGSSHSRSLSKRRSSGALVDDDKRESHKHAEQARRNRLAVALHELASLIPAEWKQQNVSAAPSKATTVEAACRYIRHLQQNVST
Briefly: relative binding free energy (BET-seq); higher = weaker binding. As to conditions: reference: library average.
Take TTGTACACGTGGGTAA: the “relative binding free energy” value was found to be 0 kcal/mol.
Consider GATTGCACGTGGATCG, for which the “relative binding free energy” value turned out to be 0.19 kcal/mol.
As for CTGTGCACGTGCGAGG, the “relative binding free energy” value was -0.02 kcal/mol.
In the case of GGGATCACGTGTCTAG it was 0.33 kcal/mol; in that of TTATGCACGTGGGTTC, -0.21 kcal/mol.
Take AGGTGCACGTGGCGTC: the “relative binding free energy” value is -0.12 kcal/mol.
With TTGGGCACGTGTAACG, the “relative binding free energy” value was 0.05 kcal/mol.
With TATAGCACGTGTCTGT the figure was -0.06 kcal/mol.
As to TTCGGCACGTGCTTAT, the “relative binding free energy” value was -0.07 kcal/mol.
Consider TGACGCACGTGGGGTA, for which the “relative binding free energy” value is -0.28 kcal/mol.
For the sequence TGATCCACGTGAGTGT, the “relative binding free energy” value worked out at 0.24 kcal/mol.
TTGCGCACGTGAGGGA: the “relative binding free energy” value was -0.03 kcal/mol.
As for ATTTTCACGTGTTTAC, the “relative binding free energy” value was 0.19 kcal/mol.
In the case of GGAAGCACGTGAAGAT it was 0.35 kcal/mol; in that of CAAGTCACGTGGTATT, -0.03 kcal/mol.
Take GTGGACACGTGCGGTA: the “relative binding free energy” value stood at 0.09 kcal/mol.
AGGCACACGTGAGGTG: the “relative binding free energy” value was 0.28 kcal/mol.
For AGTCTCACGTGGTCGA, the “relative binding free energy” value came to 0.38 kcal/mol.
In the case of TTGCTCACGTGTGGAT, the “relative binding free energy” value was 0.46 kcal/mol.
In the case of TAATTCACGTGGTTTG it was 0.14 kcal/mol.
As to CTGAGCACGTGGTAGG, the “relative binding free energy” value was -0.21 kcal/mol.
With AAGTGCACGTGTATCG the figure was 0.03 kcal/mol; with TGGCTCACGTGAGTTT, 0.33 kcal/mol; with TAGTACACGTGGAATT, 0.21 kcal/mol.
Take TGTGACACGTGTAACG: the “relative binding free energy” value stood at 0.16 kcal/mol.
For GTCGGCACGTGGAAGG, the “relative binding free energy” value was -0.05 kcal/mol.
Turning to TATTGCACGTGGCAGG, the “relative binding free energy” value was -0.1 kcal/mol.
In the case of AGGAGCACGTGTGTGT it was -0.05 kcal/mol; in that of AGGGACACGTGATGTT, 0.1 kcal/mol; in that of ACGTGCACGTGTGTCT, -0.07 kcal/mol.
With AATGTCACGTGACGGT the figure was 0.16 kcal/mol; with TGTTGCACGTGGTGTT, -0.07 kcal/mol; with GATTTCACGTGCAGTG, 0.43 kcal/mol.
In the case of GGGAACACGTGGGGCG it was -0.1 kcal/mol; in that of TATGCCACGTGTTTTT, 0.09 kcal/mol.
For CGGGTCACGTGGTTAT, the “relative binding free energy” value amounted to 0.08 kcal/mol.
With TGTATCACGTGCTTGA, the “relative binding free energy” value was -0.03 kcal/mol.
Take GGGTTCACGTGTTATG: the “relative binding free energy” value was 0.43 kcal/mol.
Take GGTTCCACGTGTTAGA: the “relative binding free energy” value amounted to 0.2 kcal/mol.
With TGTATCACGTGAAGTC the figure was 0.28 kcal/mol; with TATGGCACGTGTGAGG, 0.09 kcal/mol.
For CTGTGCACGTGGGGTG, the “relative binding free energy” value was -0.2 kcal/mol.
With GTTAGCACGTGAACGG, the “relative binding free energy” value was found to be 0.24 kcal/mol.
As to TGTCGCACGTGGCTGT, the “relative binding free energy” value was -0.11 kcal/mol.
As for CGTTTCACGTGTTGAT, the “relative binding free energy” value stood at 0.18 kcal/mol.
On to GTTAGCACGTGTCTGT, for which the “relative binding free energy” value was -0.04 kcal/mol.
As to ATGTACACGTGGTATA, the “relative binding free energy” value turned out to be 0.04 kcal/mol.
Consider GGGAGCACGTGTGTCA, for which the “relative binding free energy” value was -0.08 kcal/mol.
Take TTGGTCACGTGACGAG: the “relative binding free energy” value was determined as 0.19 kcal/mol.
For the sequence TTTTACACGTGAGATA, the “relative binding free energy” value stood at 0.22 kcal/mol.
In the case of AAGGTCACGTGTTTGG it was 0.14 kcal/mol.
AGTGTCACGTGATGCG: the “relative binding free energy” value amounted to 0.22 kcal/mol.
Regarding TTGTACACGTGGGCGA, the “relative binding free energy” value is -0.14 kcal/mol.
Consider TTGGTCACGTGGGTCT, for which the “relative binding free energy” value came out at 0.01 kcal/mol.
Turning to TTTAACACGTGGTCAT, the “relative binding free energy” value was -0.05 kcal/mol.
Regarding TATGTCACGTGGGGCC, the “relative binding free energy” value was -0.03 kcal/mol.
GGACGCACGTGAGGTG: the “relative binding free energy” value turned out to be 0.24 kcal/mol.
Consider TAATGCACGTGTTGCA, for which the “relative binding free energy” value was -0.05 kcal/mol.
Take TTAGACACGTGGGGGA: the “relative binding free energy” value is -0.2 kcal/mol.
On to TTAAGCACGTGGTTGT, for which the “relative binding free energy” value was -0.03 kcal/mol.
On to TTGTGCACGTGTACAG, for which the “relative binding free energy” value is -0.05 kcal/mol.
With TGGAGCACGTGATAGT the figure was 0.09 kcal/mol.
AGAGGCACGTGTTTGG: the “relative binding free energy” value is -0.1 kcal/mol.
On to CACGGCACGTGTAGGG, for which the “relative binding free energy” value was -0.06 kcal/mol.
AGGAGCACGTGCGGCG: the “relative binding free energy” value was -0.06 kcal/mol.
For the sequence GGTTCCACGTGGAAAG, the “relative binding free energy” value came out at 0.2 kcal/mol.
As for GTAGTCACGTGAGAGC, the “relative binding free energy” value worked out at 0.31 kcal/mol.
For TTTAGCACGTGTACAT, the “relative binding free energy” value is -0.02 kcal/mol.
With ATCTTCACGTGTCGGG the figure was 0.31 kcal/mol; with ATTTACACGTGGTTGA, 0.05 kcal/mol.
As to GTTGGCACGTGAGAGA, the “relative binding free energy” value amounted to 0.09 kcal/mol.
On to TCGATCACGTGGTGGA, for which the “relative binding free energy” value worked out at 0.12 kcal/mol.
With AGGAGCACGTGATGGG the figure was 0.05 kcal/mol.
Turning to GTATTCACGTGTTATG, the “relative binding free energy” value amounted to 0.3 kcal/mol.
Turning to TTTGGCACGTGTAAAG, the “relative binding free energy” value turned out to be 0.11 kcal/mol.
For the sequence GTGAACACGTGTTTTA, the “relative binding free energy” value was -0.06 kcal/mol.
In the case of GGTTCCACGTGTTGGG it was 0.25 kcal/mol.
For TCCGGCACGTGTTGTT, the “relative binding free energy” value was -0.09 kcal/mol.
For AGCGGCACGTGGGGTA, the “relative binding free energy” value is -0.19 kcal/mol.
GTCAGCACGTGGGGAT: the “relative binding free energy” value was -0.09 kcal/mol.
In the case of GTAGGCACGTGCATGC, the “relative binding free energy” value turned out to be 0.06 kcal/mol.
Take TTGGTCACGTGTGCGG: the “relative binding free energy” value amounted to 0.22 kcal/mol.
As to TCTGACACGTGGGGTG, the “relative binding free energy” value was -0.19 kcal/mol.
As for TTTATCACGTGTTACT, the “relative binding free energy” value is 0.12 kcal/mol.
In the case of AGTGTCACGTGACGTA it was 0.18 kcal/mol; in that of AGTTACACGTGCGGGC, 0.29 kcal/mol.
Take ATTAGCACGTGGGACG: the “relative binding free energy” value was -0.21 kcal/mol.
TGTAACACGTGGGTCA: the “relative binding free energy” value is -0.24 kcal/mol.
In the case of AAGGGCACGTGTGAAG, the “relative binding free energy” value came to 0.04 kcal/mol.
Consider GTTGTCACGTGCTAGT, for which the “relative binding free energy” value is 0.04 kcal/mol.
In the case of TGTAACACGTGCAGTG it was -0.17 kcal/mol; in that of TTGGTCACGTGCTGAA, 0.07 kcal/mol.
In the case of TTGTGCACGTGAGTTC, the “relative binding free energy” value came out at 0.13 kcal/mol.
Take CATGTCACGTGTTAAT: the “relative binding free energy” value stood at 0.05 kcal/mol.
As to AGGGCCACGTGGGTTG, the “relative binding free energy” value is -0.23 kcal/mol.
Regarding CAGGACACGTGTCGGT, the “relative binding free energy” value is 0.13 kcal/mol.
For AGTTGCACGTGGTTAC, the “relative binding free energy” value is -0.04 kcal/mol.
For the sequence TGAGGCACGTGTGATT, the “relative binding free energy” value is -0.03 kcal/mol.
On to TTAGGCACGTGGTTCG, for which the “relative binding free energy” value is -0.13 kcal/mol.
Turning to CATTGCACGTGAGAGG, the “relative binding free energy” value worked out at 0.2 kcal/mol.
As to GTTGCCACGTGTTATT, the “relative binding free energy” value amounted to 0.15 kcal/mol.
As to GAGGTCACGTGATTAA, the “relative binding free energy” value amounted to 0.33 kcal/mol.
Turning to GGGGTCACGTGTCAGG, the “relative binding free energy” value came to 0.21 kcal/mol.
Regarding ATAATCACGTGTTCTG, the “relative binding free energy” value came out at 0.1 kcal/mol.
For the sequence TGCGTCACGTGGGAGT, the “relative binding free energy” value was -0.01 kcal/mol.
TGCATCACGTGTTGTA: the “relative binding free energy” value was 0.09 kcal/mol.
As for AGAATCACGTGGATTT, the “relative binding free energy” value turned out to be 0.23 kcal/mol.
Turning to TTTTGCACGTGGACGG, the “relative binding free energy” value stood at 0.01 kcal/mol.
For AAGGACACGTGGTAAG, the “relative binding free energy” value was 0.04 kcal/mol.
TGGATCACGTGTATGG: the “relative binding free energy” value was found to be 0.25 kcal/mol.
On to CGGGGCACGTGAGGTA, for which the “relative binding free energy” value came to 0.21 kcal/mol.
Consider TCTGGCACGTGAGGGA, for which the “relative binding free energy” value is 0.15 kcal/mol.
On to AAGTTCACGTGGACTG, for which the “relative binding free energy” value was 0.33 kcal/mol.
For TGGTTCACGTGTATGT, the “relative binding free energy” value came out at 0.33 kcal/mol.
For CATTGCACGTGGGTTT, the “relative binding free energy” value was -0.12 kcal/mol.
